Measurements reported in US20260256822A1, “ENTRY-MODULATING AGENTS AND USES THEREFOR” (priority 2022, published 2026).

System: P. falciparum strain Pf3D7^0087/N9
Settings: in vivo

Question: Which “reduction of parasitemia of the mice” value does the source give for `CCC(C)[C@H]1O[C@]2(CC[C@@H]1C)C[C@@H]1C[C@@H](C/C=C(\C)[C@@H](O[C@H]3C[C@H](OC)[C@@H](O[C@H]4C[C@@H](OC)[C@H](O)[C@@H](C)O4)[C@H](C)O3)[C@@H](C)/C=C/C=C3\CO[C@@H]4[C@H](O)C(C)=C[C@@H](C(=O)O1)[C@]34O)O2` (some centres unmarked) [Ivermectin] here?
Answer: 26%

Question: And the “parasitemia in humanized NSG mouse model” value (ip, 5 mg/kg)?
Answer: reduces parasitemia
